Assay results from publication PMC5702604.
Results are given in words; binding and its absence hold for the method and conditions named. Binding seen in cells or lysates may run through a third protein. Some binding calls cover weakened binding; strength is not graded here. For part of these data: Tags and fused reporters may be left off the sequences shown. Blank lines part the entries; values can stand above or below the substance they belong to.

Protein sequences, listed by entry. Tags and fused reporters are not part of them. Lines headed by an entry give the natural chain unless they say otherwise; changes in a name come on top. Chains listed by the source or under a name are the forms on record and can include a tag or linker.
UniProt O55143: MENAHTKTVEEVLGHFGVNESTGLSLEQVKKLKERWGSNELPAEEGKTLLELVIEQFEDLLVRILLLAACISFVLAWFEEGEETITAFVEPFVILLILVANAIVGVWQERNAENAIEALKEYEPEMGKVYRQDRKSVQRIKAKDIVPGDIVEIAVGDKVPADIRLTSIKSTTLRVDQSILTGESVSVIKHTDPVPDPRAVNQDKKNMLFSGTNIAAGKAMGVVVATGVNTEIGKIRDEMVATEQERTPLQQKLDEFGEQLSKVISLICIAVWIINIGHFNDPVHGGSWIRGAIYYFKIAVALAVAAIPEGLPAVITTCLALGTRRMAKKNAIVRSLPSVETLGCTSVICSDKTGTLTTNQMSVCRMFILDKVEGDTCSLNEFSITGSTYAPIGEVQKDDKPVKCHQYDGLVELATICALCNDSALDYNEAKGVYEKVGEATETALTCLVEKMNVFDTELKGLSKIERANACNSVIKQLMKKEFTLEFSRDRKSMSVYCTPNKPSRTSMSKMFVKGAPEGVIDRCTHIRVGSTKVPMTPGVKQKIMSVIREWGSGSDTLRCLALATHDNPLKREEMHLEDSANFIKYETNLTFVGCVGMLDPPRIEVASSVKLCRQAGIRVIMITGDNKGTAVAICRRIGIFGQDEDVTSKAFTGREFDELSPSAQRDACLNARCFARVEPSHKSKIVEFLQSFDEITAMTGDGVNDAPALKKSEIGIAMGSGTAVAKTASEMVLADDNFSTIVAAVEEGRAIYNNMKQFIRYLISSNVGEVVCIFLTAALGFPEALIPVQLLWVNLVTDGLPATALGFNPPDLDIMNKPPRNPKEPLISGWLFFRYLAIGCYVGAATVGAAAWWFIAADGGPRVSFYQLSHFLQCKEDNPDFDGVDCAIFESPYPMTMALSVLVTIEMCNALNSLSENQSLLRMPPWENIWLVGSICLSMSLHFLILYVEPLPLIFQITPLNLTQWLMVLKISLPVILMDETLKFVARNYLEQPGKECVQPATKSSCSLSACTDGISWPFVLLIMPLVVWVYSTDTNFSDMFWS
SERCA2a (P16615-2, form named): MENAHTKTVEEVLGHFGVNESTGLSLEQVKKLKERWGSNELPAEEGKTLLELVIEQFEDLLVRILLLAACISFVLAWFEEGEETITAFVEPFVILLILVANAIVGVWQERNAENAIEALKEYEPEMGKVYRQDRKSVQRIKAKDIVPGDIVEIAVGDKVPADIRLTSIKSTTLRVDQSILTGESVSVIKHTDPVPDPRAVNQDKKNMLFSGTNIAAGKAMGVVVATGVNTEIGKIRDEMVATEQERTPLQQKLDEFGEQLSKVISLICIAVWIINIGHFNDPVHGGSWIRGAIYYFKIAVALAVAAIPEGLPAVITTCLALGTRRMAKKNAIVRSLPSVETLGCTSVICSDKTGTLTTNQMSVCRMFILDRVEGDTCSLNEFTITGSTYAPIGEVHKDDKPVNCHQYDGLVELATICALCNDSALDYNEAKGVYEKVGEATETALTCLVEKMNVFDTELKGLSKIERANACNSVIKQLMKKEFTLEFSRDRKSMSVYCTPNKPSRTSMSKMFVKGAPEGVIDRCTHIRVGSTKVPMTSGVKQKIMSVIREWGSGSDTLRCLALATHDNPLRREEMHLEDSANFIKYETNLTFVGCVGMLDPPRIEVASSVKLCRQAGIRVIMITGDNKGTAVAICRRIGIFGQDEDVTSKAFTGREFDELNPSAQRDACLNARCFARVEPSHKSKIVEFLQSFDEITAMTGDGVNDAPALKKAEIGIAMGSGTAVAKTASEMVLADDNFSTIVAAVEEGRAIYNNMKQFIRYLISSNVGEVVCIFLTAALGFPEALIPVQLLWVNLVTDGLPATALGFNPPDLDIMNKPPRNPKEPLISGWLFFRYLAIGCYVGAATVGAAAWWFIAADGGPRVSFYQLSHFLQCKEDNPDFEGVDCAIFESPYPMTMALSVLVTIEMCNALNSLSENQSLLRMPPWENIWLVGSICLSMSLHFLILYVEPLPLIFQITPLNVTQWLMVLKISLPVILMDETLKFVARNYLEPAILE
UniProt O14983: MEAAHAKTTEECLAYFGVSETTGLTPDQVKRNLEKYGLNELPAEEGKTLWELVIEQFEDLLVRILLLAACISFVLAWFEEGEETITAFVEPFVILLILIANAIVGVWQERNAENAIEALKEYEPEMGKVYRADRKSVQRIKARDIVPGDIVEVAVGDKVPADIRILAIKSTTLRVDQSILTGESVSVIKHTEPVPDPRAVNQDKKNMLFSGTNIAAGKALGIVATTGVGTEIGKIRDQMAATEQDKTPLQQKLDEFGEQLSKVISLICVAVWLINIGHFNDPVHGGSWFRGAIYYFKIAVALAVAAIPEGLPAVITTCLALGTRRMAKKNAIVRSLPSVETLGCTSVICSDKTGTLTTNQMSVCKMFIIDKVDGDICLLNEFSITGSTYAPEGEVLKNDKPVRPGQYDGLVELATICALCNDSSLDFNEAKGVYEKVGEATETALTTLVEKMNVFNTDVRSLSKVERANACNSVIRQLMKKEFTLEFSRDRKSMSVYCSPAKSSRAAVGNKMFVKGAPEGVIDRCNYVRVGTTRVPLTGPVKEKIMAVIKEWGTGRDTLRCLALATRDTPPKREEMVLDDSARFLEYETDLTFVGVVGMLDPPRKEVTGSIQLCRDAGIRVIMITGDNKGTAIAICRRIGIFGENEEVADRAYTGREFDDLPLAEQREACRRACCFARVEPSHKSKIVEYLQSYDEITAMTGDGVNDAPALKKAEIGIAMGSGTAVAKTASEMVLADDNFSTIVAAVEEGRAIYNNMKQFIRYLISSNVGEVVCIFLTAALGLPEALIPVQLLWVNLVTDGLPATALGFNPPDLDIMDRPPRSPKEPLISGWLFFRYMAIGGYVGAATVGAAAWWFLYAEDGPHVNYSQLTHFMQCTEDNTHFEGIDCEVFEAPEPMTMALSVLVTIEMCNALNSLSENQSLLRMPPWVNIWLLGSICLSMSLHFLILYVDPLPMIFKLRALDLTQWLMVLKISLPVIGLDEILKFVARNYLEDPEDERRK
UniProt Q93084: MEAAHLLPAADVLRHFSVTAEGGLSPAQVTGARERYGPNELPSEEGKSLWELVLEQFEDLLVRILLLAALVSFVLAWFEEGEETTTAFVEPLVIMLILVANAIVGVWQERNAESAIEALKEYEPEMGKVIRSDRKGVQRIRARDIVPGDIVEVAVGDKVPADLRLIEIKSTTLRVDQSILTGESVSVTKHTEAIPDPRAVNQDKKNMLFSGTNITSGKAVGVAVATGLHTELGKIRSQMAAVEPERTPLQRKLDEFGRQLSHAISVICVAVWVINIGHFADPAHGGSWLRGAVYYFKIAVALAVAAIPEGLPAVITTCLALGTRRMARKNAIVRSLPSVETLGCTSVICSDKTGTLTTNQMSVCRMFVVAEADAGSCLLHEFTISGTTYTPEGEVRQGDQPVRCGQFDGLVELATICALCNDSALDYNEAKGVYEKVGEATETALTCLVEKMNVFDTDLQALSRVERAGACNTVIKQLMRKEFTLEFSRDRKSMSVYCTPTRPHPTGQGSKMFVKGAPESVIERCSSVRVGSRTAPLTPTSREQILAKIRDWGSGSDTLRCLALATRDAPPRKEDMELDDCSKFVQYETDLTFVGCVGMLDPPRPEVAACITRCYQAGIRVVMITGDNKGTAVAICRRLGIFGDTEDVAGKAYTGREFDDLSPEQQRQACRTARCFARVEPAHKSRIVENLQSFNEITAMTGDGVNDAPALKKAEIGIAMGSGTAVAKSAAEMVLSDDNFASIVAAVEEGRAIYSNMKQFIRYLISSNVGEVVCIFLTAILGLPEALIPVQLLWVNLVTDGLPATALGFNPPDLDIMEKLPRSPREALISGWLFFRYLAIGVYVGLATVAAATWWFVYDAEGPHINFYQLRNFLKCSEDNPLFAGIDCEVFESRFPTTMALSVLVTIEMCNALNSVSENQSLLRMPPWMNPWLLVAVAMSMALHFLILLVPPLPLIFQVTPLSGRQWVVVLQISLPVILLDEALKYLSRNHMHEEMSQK

Key:
[1] = target: Piezo1-GST fusion protein (mouse Piezo1) (mouse) (UniProt E2JF22); assay: pull-down; Supplementary Fig. 1 (not shown); told as 'similarly' to the GST pull-down from co-transfected HEK293T cells
[2] = target: Piezo1-GST fusion protein (mouse Piezo1) (mouse) (UniProt E2JF22); assay: pull-down; Piezo1-GST pull-down of co-expressed Flag-SERCA2 from HEK293T lysates with linker-peptide or scrambled-peptide added to the lysates at 200 μM, overnight
[3] = target: T1, GST-fused predicted intracellular fragment of the central region of Piezo1 (1367–1652) (mouse) (UniProt E2JF22); assay: pull-down; GST pull-down from lysates of HEK293T cells co-transfected with GST-fused bait and Flag-SERCA2; glutathione magnetic beads, 4 °C overnight; 25 mM NaPIPES, 140 mM NaCl, 1% CHAPS, 0.5% PC, 2.5 mM DTT; western blotting
T1 sequence: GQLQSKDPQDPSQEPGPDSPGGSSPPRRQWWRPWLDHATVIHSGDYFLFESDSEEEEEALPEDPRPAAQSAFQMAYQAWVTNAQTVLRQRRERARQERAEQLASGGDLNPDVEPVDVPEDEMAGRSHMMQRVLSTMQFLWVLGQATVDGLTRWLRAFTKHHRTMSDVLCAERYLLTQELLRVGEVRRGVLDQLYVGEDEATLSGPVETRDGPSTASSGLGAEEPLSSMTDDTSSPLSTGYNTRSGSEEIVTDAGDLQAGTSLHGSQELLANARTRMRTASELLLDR

[4] = target: T2, GST-fused Piezo1 fragment 2171–2483 (without CTD) (mouse) (UniProt E2JF22); assay: as above
T2 sequence: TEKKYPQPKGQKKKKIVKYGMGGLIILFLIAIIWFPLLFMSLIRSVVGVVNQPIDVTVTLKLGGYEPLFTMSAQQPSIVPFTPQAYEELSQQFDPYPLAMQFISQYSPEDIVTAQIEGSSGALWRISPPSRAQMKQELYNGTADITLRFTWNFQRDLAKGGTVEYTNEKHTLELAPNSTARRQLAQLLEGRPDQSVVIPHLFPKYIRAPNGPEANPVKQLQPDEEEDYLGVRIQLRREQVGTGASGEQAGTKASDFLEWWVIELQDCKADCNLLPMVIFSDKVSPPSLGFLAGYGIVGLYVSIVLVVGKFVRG

[5] = target: T3, GST-fused C-terminal fragment of Piezo1 (1960–2547) (mouse) (UniProt E2JF22); assay: as above
T3 sequence: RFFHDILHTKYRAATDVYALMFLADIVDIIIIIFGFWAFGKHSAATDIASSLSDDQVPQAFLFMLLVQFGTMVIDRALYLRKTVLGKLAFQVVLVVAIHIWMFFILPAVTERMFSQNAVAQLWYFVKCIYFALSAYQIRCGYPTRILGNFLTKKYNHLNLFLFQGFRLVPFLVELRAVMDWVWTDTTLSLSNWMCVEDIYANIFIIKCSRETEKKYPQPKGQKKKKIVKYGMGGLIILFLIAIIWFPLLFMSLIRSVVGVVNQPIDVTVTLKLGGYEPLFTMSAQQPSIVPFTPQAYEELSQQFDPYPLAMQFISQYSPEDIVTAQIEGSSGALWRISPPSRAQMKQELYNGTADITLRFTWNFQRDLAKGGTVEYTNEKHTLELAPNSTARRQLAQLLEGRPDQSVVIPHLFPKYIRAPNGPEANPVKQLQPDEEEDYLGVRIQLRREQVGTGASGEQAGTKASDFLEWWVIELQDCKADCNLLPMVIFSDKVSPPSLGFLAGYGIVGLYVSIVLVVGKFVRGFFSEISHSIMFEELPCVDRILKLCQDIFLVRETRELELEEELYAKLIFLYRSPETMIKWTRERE

[6] = target: Piezo1-GST fusion protein (mouse Piezo1) (mouse) (UniProt E2JF22); assay: as above
[7] = target: T4, GST-fused Piezo1 fragment 2171–2547 (with CTD) (mouse) (UniProt E2JF22); assay: as above
T4 sequence: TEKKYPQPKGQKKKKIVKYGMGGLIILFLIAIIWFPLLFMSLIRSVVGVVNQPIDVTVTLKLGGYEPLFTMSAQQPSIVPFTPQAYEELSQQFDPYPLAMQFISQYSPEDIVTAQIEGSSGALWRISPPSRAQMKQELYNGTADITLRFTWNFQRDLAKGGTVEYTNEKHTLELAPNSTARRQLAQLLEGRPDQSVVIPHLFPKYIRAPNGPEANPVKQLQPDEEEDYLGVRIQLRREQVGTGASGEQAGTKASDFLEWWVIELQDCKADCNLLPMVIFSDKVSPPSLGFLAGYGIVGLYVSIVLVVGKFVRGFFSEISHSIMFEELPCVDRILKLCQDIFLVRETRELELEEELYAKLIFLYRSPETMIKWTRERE

[8] = target: T5, GST-fused Piezo1 fragment 1960–2483 (without CTD) (mouse) (UniProt E2JF22); assay: as above
T5 sequence: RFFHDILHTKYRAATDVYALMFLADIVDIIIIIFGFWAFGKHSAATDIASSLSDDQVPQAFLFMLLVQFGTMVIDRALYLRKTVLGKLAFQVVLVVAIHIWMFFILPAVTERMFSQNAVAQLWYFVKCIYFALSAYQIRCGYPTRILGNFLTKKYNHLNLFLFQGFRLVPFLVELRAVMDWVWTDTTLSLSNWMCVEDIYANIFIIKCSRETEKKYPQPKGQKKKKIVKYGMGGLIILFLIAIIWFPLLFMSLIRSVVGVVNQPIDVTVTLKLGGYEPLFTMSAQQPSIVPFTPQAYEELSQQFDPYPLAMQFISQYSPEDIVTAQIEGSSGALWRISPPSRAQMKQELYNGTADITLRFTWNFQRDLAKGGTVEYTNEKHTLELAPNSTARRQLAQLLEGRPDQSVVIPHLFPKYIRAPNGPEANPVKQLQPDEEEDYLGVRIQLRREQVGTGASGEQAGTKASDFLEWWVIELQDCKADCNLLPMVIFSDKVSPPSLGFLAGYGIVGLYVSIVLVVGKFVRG

[9] = target: T6, GST-fused N-terminal fragment of Piezo1 (1–730) (mouse) (UniProt E2JF22); assay: as above
T6 sequence: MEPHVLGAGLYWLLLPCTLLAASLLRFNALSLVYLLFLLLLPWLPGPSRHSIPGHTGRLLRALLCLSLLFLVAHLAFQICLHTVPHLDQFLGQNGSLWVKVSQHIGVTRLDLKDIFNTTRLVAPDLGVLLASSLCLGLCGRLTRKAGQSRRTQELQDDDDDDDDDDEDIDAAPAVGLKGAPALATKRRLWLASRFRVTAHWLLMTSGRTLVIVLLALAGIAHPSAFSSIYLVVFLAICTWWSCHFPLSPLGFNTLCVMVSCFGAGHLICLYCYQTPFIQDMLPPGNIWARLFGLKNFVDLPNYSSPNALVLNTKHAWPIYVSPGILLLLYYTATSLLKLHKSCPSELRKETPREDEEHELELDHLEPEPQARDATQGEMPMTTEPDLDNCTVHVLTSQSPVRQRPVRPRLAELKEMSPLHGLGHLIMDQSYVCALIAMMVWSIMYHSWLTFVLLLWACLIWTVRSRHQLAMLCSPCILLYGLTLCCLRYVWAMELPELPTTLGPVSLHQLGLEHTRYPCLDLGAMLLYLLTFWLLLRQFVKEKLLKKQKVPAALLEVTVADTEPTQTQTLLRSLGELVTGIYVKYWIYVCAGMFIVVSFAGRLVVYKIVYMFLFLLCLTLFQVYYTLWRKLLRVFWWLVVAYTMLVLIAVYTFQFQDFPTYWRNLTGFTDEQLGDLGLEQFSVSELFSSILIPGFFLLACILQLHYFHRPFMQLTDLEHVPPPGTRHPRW

[10] = target: endogenously expressed SERCA2 in Neuro2A (N2A) cells (mouse (endogenous in N2A)) (UniProt O55143); assay: co-IP; N2A lysate (10 mM Tris-HCl pH 7.5, 150 mM NaCl, 1 mM EDTA, 1% Triton X-100, 0.5% NP-40); protein G magnetic beads with anti-SERCA2 or IgG, 4 °C overnight; blot with Piezo1 antibody; control or Piezo1 shRNA

- binding [2]: binds
- binding [3]: no binding
- binding [4]: binds
- binding [5]: binds
- binding [6]: binds
- binding [7]: binds
- binding [8]: binds
- binding [9]: no binding
Substance: Flag-tagged SERCA2 (SERCA2b) (from UniProt P16615-1 1-1042)

- binding [1]: binds
Substance: SERCA1 (from UniProt O14983 1-1001)

Further lines, the substance ahead of its results:

Substance: SERCA3 (from UniProt Q93084 1-999)
- binding [1]: binds

Substance: endogenously expressed Piezo1 in Neuro2A (N2A) cells (from UniProt E2JF22 1-2547)
- binding [10]: binds

Substance: SERCA2a (from UniProt P16615-2 1-997)
- binding [1]: binds
